Among the data in the supplement of paper PMC5919970 are fractional viability values, retold here.

This assay deals with TYKNU. Put plainly: fractional viability relative to vehicle; TYKNU is a high-grade serous ovarian cancer line; higher = less growth inhibition. The settings on record: 72 h. In a few lines:
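TYKNU control cells or lentiCRISPRv2 knockout derivatives were seeded at 500 cells per well into drug-stamped 384-well plates holding a ~2100-compound library at 2 or 10 μM, in duplicate. Cells were grown at 37 °C in 5% CO2 in RPMI 1640 with 10% FBS, and drug treatment lasted 72 h. Viability was read by Cell Titer Glo luminescence. Duplicate treatment wells were averaged and normalised to duplicate control wells from the same plate position.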

Setting [1] is: 2uM, genotype: DNM1L knockout (sgDNM1L #1).
Setting [2] is: 2uM, genotype: sgCTRLA1 (non-targeting control).
[3] abbreviates: 10uM, genotype: DNM1L knockout (sgDNM1L #1).
[4] abbreviates: 10uM, genotype: sgCTRLA1 (non-targeting control).

The structures appear in SMILES notation. Counter-ions that a name gives are not always drawn. Whole data set: some 2,000 compounds, median “fractional viability relative to vehicle” near 0.91, cut for the lowest 2% near 0.045. Some of the results follow.

Take `CC(C)C[C@H](NP(=O)(O)O[C@@H]1O[C@@H](C)[C@H](O)[C@@H](O)[C@H]1O)C(=O)N[C@@H](Cc1c[nH]c2ccccc12)C(=O)O` [Phosphoramidon Disodium Salt]: the fractional viability reads like this: under setting [1], 0.791; under setting [2], 0.943; under setting [3], 0.793; under setting [4], 0.773.
Take `COc1ccc(-c2ccc3c(N4CCOC[C@@H]4C)nc(N4CCOC[C@@H]4C)nc3n2)cc1CO`: the fractional viability is 0.177 under setting [1], 0.193 under setting [2], 0.204 under setting [3] and 0.198 under setting [4].
On to `COc1ccc2c(c1)CCC1C2CCC2(C)C(NCCCCCCN3C(=O)C=CC3=O)CCC12` (centres undefined), for which the fractional viability under setting [1] was 0.849, the fractional viability under setting [2] was determined as 0.972, the fractional viability under setting [3] came to 0.942 and the fractional viability under setting [4] was 0.781.
For the molecule `COc1nccc(-c2c(-c3ccc(F)cc3)ncn2C2CCC(O)CC2)n1` (centres undefined), the fractional viability came out at 0.794 under setting [1], 0.963 under setting [2], 0.687 under setting [3] and 0.677 under setting [4].
For `CN[C@@H](C)C(=O)N[C@H](C(=O)N1CCC[C@H]1c1nc(C(=O)c2ccc(F)cc2)cs1)C1CCCCC1`, in that order: 0.688, 1.07, 0.476 and 0.923.
`Cc1c(C(=O)Nc2ccc(Oc3ccnc4[nH]cc(-c5ccccc5)c34)c(F)c2)c(=O)n(-c2ccc(F)cc2)n1C` yielded a fractional viability under setting [1] of 0.717, a fractional viability under setting [2] of 0.956, a fractional viability under setting [3] of 0.488 and a fractional viability under setting [4] of 0.619.
As for `COc1c(C)c(C(=O)c2ccc(N)c(C(=O)O)c2)n2ccccc12`, the fractional viability under setting [1] was determined as 0.816, the fractional viability under setting [2] stood at 1.14, the fractional viability under setting [3] was determined as 0.752 and the fractional viability under setting [4] amounted to 1.08.
As to `CC(=O)Oc1ccccc1C(=O)Nc1ncc([N+](=O)[O-])s1` [Nitazoxanide], the fractional viability is, setting by setting: under setting [1], 1.25; under setting [2], 1.17; under setting [3], 1.05; under setting [4], 0.91.
On the same counts, the results for `NC(=O)c1ccc(N(C(N)=O)c2c(F)cccc2F)nc1-c1ccc(F)cc1F` are 0.752, 1.04, 0.828 and 0.984.
For `CCCc1cc(C)[nH]c(=O)c1CNC(=O)c1cc(-c2ccc(N3CCN(C(C)C)CC3)nc2)cc2c1cnn2C(C)C`, in that order: 0.75, 1.03, 0.122 and 0.113.
As for `COc1ccc([C@@H]2CC(=O)c3c(O)cc(O)cc3O2)cc1O` [Hesperetin], the fractional viability was determined as 1.03 under setting [1], 1.02 under setting [2], 1.02 under setting [3] and 1.13 under setting [4].
As for `Nc1c(CC(=O)O)cccc1C(=O)c1ccccc1` [Amfenac Sodium Monohydrate], the fractional viability came out at 0.897 under setting [1], 1.03 under setting [2], 0.931 under setting [3] and 1.03 under setting [4].
Regarding `CC(C)(C)C(=O)Nc1ccc2c(c1)C(=O)C(=O)c1ccccc1-2`, the fractional viability reads like this: under setting [1], 0.175; under setting [2], 0.0968; under setting [3], 0.0236; under setting [4], 0.0127.
For `O=C(Nc1cccc(Cl)c1)c1ccccn1`, in that order: 1.06, 1.05, 0.971 and 1.12.
In the case of `N#Cc1ccc(C(c2ccc(C#N)cc2)n2cncn2)cc1` [Letrozole], the fractional viability by setting is: under setting [1], 0.954; under setting [2], 1; under setting [3], 0.827; under setting [4], 0.857.
For `C[C@@]1(C(=O)Nc2ccc(F)nc2)CCCN1c1nc(Nc2cc(C3CC3)n[nH]2)c2cccn2n1`, in that order: 0.561, 0.689, 0.282 and 0.252.
Consider `Clc1ccc(CCC(Cn2ccnc2)Sc2c(Cl)cccc2Cl)cc1` (centres undefined) [Butoconazole nitrate], for which the fractional viability reads like this: under setting [1], 1.01; under setting [2], 0.973; under setting [3], 0.723; under setting [4], 0.846.
As for `CN(C)C(=O)Nc1cccc(-c2ccc(N(C)C)cc2)c1` [Atglistatin], the fractional viability turned out to be 0.804 under setting [1], 0.95 under setting [2], 0.875 under setting [3] and 0.769 under setting [4].
For `CN1CCN(C2=Nc3ccccc3Oc3ccc(Cl)cc32)CC1` [Loxapine Succinate], in that order: 1, 1.05, 0.619 and 1.02.
On the same counts, the results for `CC(C)CC(N)=O` [Isovaleramide] are 1.06, 1.19, 1.05 and 1.15.
In the case of `COc1c2occc2cc2ccc(=O)oc12` [Methoxsalen], the fractional viability worked out at 0.944 under setting [1], 1.16 under setting [2], 0.944 under setting [3] and 1.22 under setting [4].
In the case of `N=C(NCCCCCCNC(=N)NC(=N)Nc1ccc(Cl)cc1)NC(=N)Nc1ccc(Cl)cc1` [Chlorhexidine HCl], the fractional viability is, setting by setting: under setting [1], 1.16; under setting [2], 0.839; under setting [3], 0.0803; under setting [4], 0.102.
Take `CCOC(=O)[C@@H](N)Cc1ccc(-c2cc(O[C@H](c3ccc(Cl)cc3-n3ccc(C)n3)C(F)(F)F)nc(N)n2)cc1` [Telotristat Etiprate (LX 1606 Hippurate)]: the fractional viability was 0.777 under setting [1], 1.1 under setting [2], 0.0468 under setting [3] and 0.12 under setting [4].
`c1ccc(NCc2ccc(CNc3ccccn3)cc2)nc1`: the fractional viability came out at 1.2 under setting [1], 1.19 under setting [2], 1.02 under setting [3] and 1.03 under setting [4].
On the same counts, the results for `CN1CCN(Cc2ccc(Nc3ncc(Cl)c(Nc4ccccc4S(=O)(=O)N(C)C)n3)cc2)CC1` are 0.22, 0.229, 0.234 and 0.18.
In the case of `COC(=O)c1ccc2c(c1)nc(NC(=O)c1ccccc1)n2CCCc1ccccc1`, the fractional viability is, setting by setting: under setting [1], 0.818; under setting [2], 1.05; under setting [3], 0.384; under setting [4], 0.417.
Take `Cc1nnc(C(=O)NC(C)(C)c2nc(C(=O)NCc3ccc(F)cc3)c(O)c(=O)n2C)o1` [Raltegravir (MK-0518)]: the fractional viability reads like this: under setting [1], 0.979; under setting [2], 1.07; under setting [3], 0.879; under setting [4], 1.06.
With `C[C@@H]1C[C@H]2[C@@H]3C[C@H](F)C4=CC(=O)C=C[C@]4(C)[C@@]3(F)[C@@H](O)C[C@]2(C)[C@@]1(O)C(=O)CO` [Flumethasone], the fractional viability was found to be 1.3 under setting [1], 1.08 under setting [2], 0.819 under setting [3] and 1.02 under setting [4].
On the same counts, the results for `O=C(NC[C@H]1CN(c2ccc(N3CCOCC3=O)cc2)C(=O)O1)c1ccc(Cl)s1` [Rivaroxaban] are 1.11, 1.14, 0.885 and 1.01.
Turning to `C[C@@H](Oc1ccc2[nH]nc(/C=C/c3cnn(CCO)c3)c2c1)c1c(Cl)cncc1Cl`, the fractional viability under setting [1] was 0.356, the fractional viability under setting [2] is 0.412, the fractional viability under setting [3] worked out at 0.149 and the fractional viability under setting [4] was found to be 0.157.
In the case of `C[C@H]1O[C@H](O[C@H]2[C@H](O)[C@@H](O)[C@@H](O[C@H]3[C@H](O)[C@@H](O)C(O)O[C@@H]3CO)O[C@@H]2CO)[C@H](O)[C@@H](O)[C@@H]1N[C@H]1C=C(CO)[C@@H](O)[C@H](O)[C@H]1O` (some centres undefined) [Acarbose], the fractional viability turned out to be 0.938 under setting [1], 1.17 under setting [2], 0.953 under setting [3] and 1.22 under setting [4].
On the same counts, the results for `CNC1CCCN(c2c(F)cc3c(=O)c(C(=O)O)cn(C4CC4)c3c2OC)C1` (centres undefined) [Balofloxacin] are 0.977, 1.05, 0.965 and 1.01.
As for `CC[C@H]1[C@@H](O)[C@@H]2[C@H](CC[C@]3(C)[C@@H]([C@H](C)CCC(=O)O)CC[C@@H]23)[C@@]2(C)CC[C@@H](O)C[C@@H]12` [Obeticholic Acid], the fractional viability reads like this: under setting [1], 0.846; under setting [2], 0.891; under setting [3], 0.952; under setting [4], 0.807.
On the same counts, the results for `CN1CCC(=C2c3ccccc3C=Cc3ccccc32)CC1` [Cyproheptadine HCl] are 0.982, 1.06, 0.717 and 0.943.
As to `N=C(N)NC(=N)NCCc1ccccc1` [Phenformin HCl], the fractional viability turned out to be 1.01 under setting [1], 1.24 under setting [2], 0.769 under setting [3] and 0.947 under setting [4].
Regarding `CO[C@H]1/C=C/O[C@@]2(C)Oc3c(C)c(O)c4c(O)c(c(/C=N/N5CCN(C6CCCC6)CC5)c(O)c4c3C2=O)NC(=O)/C(C)=C\C=C\[C@H](C)[C@H](O)[C@@H](C)[C@@H](O)[C@@H](C)[C@H](OC(C)=O)[C@@H]1C` [Rifapentine], the fractional viability is, setting by setting: under setting [1], 0.837; under setting [2], 1.01; under setting [3], 0.453; under setting [4], 0.622.
